About 560 (0.17%) of roughly 330,000 compounds were called active. The inconclusive results got no clear call from the source; some entries with a clear call stand among them for comparison. Calls follow the shape of the dose curve; as a rule, active = well fitted inhibition curve with a large enough effect; inconclusive = small, poorly fitted or top-dose-only effect, or effect the other way; inactive = flat fitted curve, though single readings scatter. Potencies of inconclusive entries are left out as doubtful fits.
The compounds below were run against ATP-dependent 6-phosphofructokinase (Trypanosoma brucei brucei) (UniProt O15648) (assay: qHTS Assay to Find Inhibitors of T. brucei phosphofructokinase). Details: T. brucei PFK, ADP-Glo luminescence; series mostly up to 57.5 µM.
Sequence of UniProt O15648 (O15648 whole entry, looked up): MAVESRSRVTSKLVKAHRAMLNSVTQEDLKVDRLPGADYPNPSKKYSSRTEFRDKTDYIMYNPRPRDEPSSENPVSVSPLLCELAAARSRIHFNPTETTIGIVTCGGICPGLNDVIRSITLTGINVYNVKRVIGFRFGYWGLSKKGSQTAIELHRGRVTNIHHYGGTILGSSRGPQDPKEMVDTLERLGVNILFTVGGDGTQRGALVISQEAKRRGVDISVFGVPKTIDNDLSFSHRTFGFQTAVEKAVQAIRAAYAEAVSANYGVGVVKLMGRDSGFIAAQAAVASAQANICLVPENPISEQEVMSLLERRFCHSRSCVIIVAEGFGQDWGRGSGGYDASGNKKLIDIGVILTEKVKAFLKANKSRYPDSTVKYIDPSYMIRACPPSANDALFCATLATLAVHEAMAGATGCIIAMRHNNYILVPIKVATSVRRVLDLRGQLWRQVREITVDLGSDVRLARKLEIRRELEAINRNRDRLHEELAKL
How it was run: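 ADP-Glo luminescence quantified ADP after 45 min at room temperature, with 1.25 nM T. brucei PFK, 0.1 mM ATP and 0.5 mM fructose-6-phosphate in pH 8.0 TEA buffer. qHTS titrations up to 57 µM; curves classified by quality.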
In the case of `O=C(c1ccc(-c2cccc(Cl)c2Cl)o1)N1CCOCC1`, the Potency was “inactive”.
In the case of `C=CCC1=C/C(=C\c2c(N)n3nc(CC(=O)N4CCCC4)sc3nc2=O)C=C(OC)C1=O`, the Potency was “inactive”.
For `COc1ccccc1C(C)NCC(=O)NC(=O)NCc1ccco1` (configuration not stated), the Potency was inconclusive [falling, partial curve, poor fit].
`Cc1cc(C(=O)Nc2ccc(Br)cc2)cs1` was tested, and the Potency was inconclusive [falling, single point].
For `O=C(Nc1cccc(Br)c1)c1ccc2nc(N3C(=O)CCC3=O)sc2c1`, the Potency was “inactive”.
In the case of `COC(=O)c1ccccc1NS(=O)(=O)c1ccc(O)c(C(=O)O)c1`, the Potency was active: 37.9 µM.
With `CCN(CC)c1ccc(/C=N/N2CCOCC2)cc1` the Potency was “inactive”.
`O=C(CSc1nc2ccccc2s1)Nc1cc(C(=O)O)cc(C(=O)O)c1` was tested, and the Potency was inconclusive [falling, single point].
With `O=C(O)c1ccc2c(c1)-c1cc(C(=O)O)ccc1S2(=O)=O` the Potency was “inactive”.
`COc1ccc(NC(=O)CSc2nc(NS(=O)(=O)c3ccc(C)cc3)cc(=O)[nH]2)cc1` was tested, and the Potency was inconclusive [falling, single point].
In the case of `CCN(CC)C(=O)c1ccc(-c2nnc(Nc3ccc(C(=O)NC)cc3)c3ccccc23)cc1`, the Potency was inconclusive [falling, full curve, poor fit].
With `O=C(O)/C=C/C(=O)c1ccc2c(c1)NC(=O)CO2` the Potency was inconclusive [activator, single point].
With `O=C(CCC(=O)N1CCOc2ccc(Cl)cc21)NCCCN1CCN(c2ccccc2F)CC1` the Potency was inconclusive [falling, single point].
With `O=C(N/N=C/c1ccco1)Nc1ccccc1` the Potency was “inactive”.
With `Cc1ccc(CCC(=O)Nc2nccs2)o1` the Potency was “inactive”.
In the case of `O=C(O)CCN1C(=O)/C(=C2\C(=O)N(Cc3ccc(F)cc3)c3ccccc32)SC1=S`, the Potency was “inactive”.
In the case of `CCc1ccc(NC(=O)CS(=O)CC(=O)Nc2ccc(-n3cnnn3)c(C)c2)cc1` (configuration not stated), the Potency was inconclusive [falling, single point].
`O=C(NCc1ccc(F)cc1)NC(=O)c1ccc(Cl)cc1` was tested, and the Potency was inconclusive [activator, single point].
For `O=C(Nc1ccn(Cc2ccc(Cl)cc2)n1)c1ccccc1`, the Potency was inconclusive [falling, partial curve].
For `CCOC(=O)c1c(C)n(-c2ccc(C)cc2)c2c(C(C(C)=O)C(=O)O)c(Br)c(O)c(O)c12` (configuration not stated), the Potency was inconclusive [falling, full curve].
For `Cc1ccccc1OCCn1c(=S)[nH]c2c(N)ncnc21`, the Potency was inconclusive [falling, partial curve].
With `Cc1cnc(C(=O)OCC(=O)c2ccc[nH]2)cn1` the Potency was inconclusive [falling, single point].
In the case of `N#Cc1c(F)cccc1NCc1cccs1`, the Potency was inconclusive [falling, partial curve].
In the case of `Nc1ccccc1SSc1ccccc1N`, the Potency was inconclusive [falling, partial curve].
With `Cc1ccc(CNC(=O)CC2(CC3=NS(=O)(=O)c4ccccc4N3)CCCC2)cc1` the Potency was “inactive”.
With `O=C(O)c1c(-c2ccccc2)oc2ccc(O)cc12` the Potency was “inactive”.
In the case of `COc1ccc(O)c(-c2[nH]ncc2C(=O)c2ccccc2)c1`, the Potency was “inactive”.
For `COc1ccc(S(=O)(=O)N2CCOCC2)cc1NC(=O)c1cccc(-n2cccc2)c1`, the Potency was inconclusive [falling, full curve].
With `O=C(NCc1ccc2c(c1)OCO2)c1ccc(N2CCCCCC2)c([N+](=O)[O-])c1` the Potency was inconclusive [falling, single point].
With `O=C(CCNS(=O)(=O)c1cccc2nonc12)N1CCN(c2cccc(Cl)c2)CC1` the Potency was inconclusive [falling, single point].
With `O=C(O)CCN1C(=O)c2ccc(NC(=O)Cc3ccc(Cl)cc3)cc2C1=O` the Potency was active: 19 µM.
`Cc1cc2cc(CNC(=O)Cc3ccc([N+](=O)[O-])cc3)ccc2[nH]1` was tested, and the Potency was inconclusive [falling, partial curve].
`O=c1cc(CN2CCN(S(=O)(=O)c3ccc4c(c3)OCCO4)CC2)c2ccc(O)cc2o1` was tested, and the Potency was “inactive”.
`Cc1ccc(C(=O)OC(C)C(=O)c2cc(C)c(C)cc2C)o1` (configuration not stated) was tested, and the Potency was inconclusive [falling, single point].
`COc1cc(C=C2C(=O)c3ccccc3C2=O)ccc1O` was tested, and the Potency was “inactive”.
`O=C(/C=C/Nc1ccc(F)cc1F)c1cccs1` was tested, and the Potency was inconclusive [falling, partial curve, poor fit].
`COc1cccc(OC)c1-c1nn2c(-c3cc(-c4ccccc4)n[nH]3)nnc2s1` was tested, and the Potency was inconclusive [activator, full curve].
For `O=C(CN1CCN(c2ccc(O)cc2)CC1)Nc1cc(S(=O)(=O)N2CCCCC2)ccc1Cl`, the Potency was inconclusive [falling, partial curve].
`O=C(COc1ccc(/C=N/NC(=O)c2cc3ccccc3o2)cc1Cl)Nc1ccccc1` was tested, and the Potency was inconclusive [activator, partial curve].
In the case of `N#Cc1c(NC(=O)c2ccncc2)sc2c1CCC2`, the Potency was inconclusive [falling, single point].
In the case of `O=C(CCC(=O)N1CCN(c2cccc(Cl)c2)CC1)N1CCN(c2ccccc2)CC1`, the Potency was inconclusive [falling, partial curve].
`CCOc1ccc(CCNC(=O)CCS(=O)(=O)c2ccc(OC)cc2)cc1OCC` was tested, and the Potency was inconclusive [falling, single point].
In the case of `CNS(=O)(=O)c1cc(N)ccc1C`, the Potency was inconclusive [falling, single point].
With `O=C(NCCc1c[nH]c2ccccc12)c1ccc2nc[nH]c2c1` the Potency was inconclusive [falling, single point].
With `O=C(COc1ccc(Cl)cc1Cl)Nc1ccc(S(=O)(=O)NC2=NCCCCC2)cc1` the Potency was active: 15.1 µM.
`N#Cc1ccc(CSc2nnc(Cc3cccs3)n2Cc2ccco2)cc1` was tested, and the Potency was inconclusive [falling, single point].
For `O=c1c2ccccc2nc(/C=C/c2cccnc2)n1CCc1ccccc1`, the Potency was inconclusive [falling, single point].
`O=c1c(O)c(-c2cc(O)c(O)c(O)c2)oc2cc(O)cc(O)c12` was tested, and the Potency was active: 8.49 µM.
With `O=C(CSc1nc(O)c(Cc2ccccc2)c(=O)[nH]1)Nc1nnc(SCc2ccccc2)s1` the Potency was inconclusive [falling, single point].
With `C/C(N)=C(/C#N)C(=O)CSc1nnc(Nc2c(C)cccc2C)s1` the Potency was inconclusive [falling, single point].
For `COc1ccc(NC(=S)NNc2ccc(S(=O)(=O)Nc3ccccc3C(=O)O)cc2[N+](=O)[O-])cc1`, the Potency was inconclusive [activator, single point].
`COc1cc(/C=N/N2CCOCC2)ccc1OCc1ccc(Cl)cc1` was tested, and the Potency was “inactive”.
With `O=C(O)CCCNc1cc(N2CCN(C(=O)c3ccco3)CC2)c2noc3c2c1C(=O)c1ccccc1-3` the Potency was inconclusive [falling, single point].
`O=C(Nc1ccccc1)C1=C(c2ccccc2)S(=O)(=O)CCS1(=O)=O` was tested, and the Potency was inconclusive [activator, partial curve].
`O=c1c(O)cccc2cc(O)c(O)c(O)c12` was tested, and the Potency was active: 6.75 µM.
In the case of `O=C1c2cccc3cccc(c23)C(=O)N1c1ccc(O)cc1`, the Potency was inconclusive [falling, single point].
With `O=C(Nc1ccc(F)cc1)Nc1sccc1-c1nc2ccccc2s1` the Potency was “inactive”.
For `COCCNC(=O)Nc1ccc2nc(-c3ccco3)c(-c3ccco3)nc2c1`, the Potency was inconclusive [falling, full curve].
With `COC(=O)COc1ccc(C(C2C(=O)CC(C)(C)CC2=O)C2C(=O)CC(C)(C)CC2=O)cc1` the Potency was inconclusive [activator, single point].
For `OCC1(Cc2ccc(Cl)cc2)CCN(Cc2ccccc2F)CC1`, the Potency was “inactive”.
In the case of `COc1cccc(OCCn2ccnc2)c1`, the Potency was inconclusive [falling, single point].
`NC(=O)c1ccc(-c2ncc(-c3ccccc3)o2)cc1` was tested, and the Potency was “inactive”.
In the case of `CCc1cc2c(=O)c(-c3nc4ccccc4n3C)coc2c(CN2CCN(C)CC2)c1O`, the Potency was inconclusive [falling, single point].
For `CC(=O)Nc1ccc(NC(=O)c2ccc(Cn3cc(Cl)cn3)cc2)cc1`, the Potency was inconclusive [falling, partial curve].
With `Cc1cc(OC(C)C(=O)NCC2CCC(C(=O)O)CC2)c2c(C)c(Cc3ccccc3)c(=O)oc2c1` (configuration not stated) the Potency was inconclusive [falling, single point].
For `O=C(Nc1ccc(Cl)cc1)C1CCCN1C(=O)NCc1ccccc1` (configuration not stated), the Potency was “inactive”.
In the case of `CCc1ccc(NC(=O)c2noc3c2CCC3)cc1`, the Potency was inconclusive [falling, single point].
For `COc1cccc(Nc2nc(=O)[nH]nc2C)c1`, the Potency was inconclusive [falling, single point].
For `CS(=O)(=O)N(CC(=O)N1CCc2ccccc2C1)c1cccc([N+](=O)[O-])c1`, the Potency was inconclusive [falling, single point].
With `CCOc1ccccc1/C=c1\sc2nc(-c3ccco3)nn2c1=O` the Potency was inconclusive [falling, single point].
For `CCCCN1C(=O)/C(=C/C=C2\SCCN2C)SC1=S`, the Potency was “inactive”.
In the case of `Cc1cc(SCc2ccc([N+](=O)[O-])cc2)nc(=O)[nH]1`, the Potency was inconclusive [falling, single point].

Source: PubChem BioAssay AID485367 (National Center for Advancing Translational Sciences (NCATS), 2010)
Also: nearly all actives have a fitted effect of over 60% in size.
Potency is read from the fitted curve at half-maximal effect; tags tell the direction and shape of the fitted curve.
